Residue numbers refer to the chain shown, from its start. The list shows a part of the results.
T1: RBFOX1 RRM RbFoxmut (Fox-RRM*) (Homo sapiens, UniProt Q9NWB1 109-208, R118D;E147R;N151S;E152T)
T1 sequence: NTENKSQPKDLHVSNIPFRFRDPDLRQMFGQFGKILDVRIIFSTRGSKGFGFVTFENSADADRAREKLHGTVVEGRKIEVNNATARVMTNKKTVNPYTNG

B1: AUCAAUG (DNA:RNA)
RNA: GGGAGACCGGAAUUCAGAUUGUCCAUCAAUGUUAAAUCCCGUCGUAGCCACCA
DNA 1: CAATCTGAATTCCGGTCTCCC
DNA 2: TGGTGGCTACGACGGGATT
B2: CGUUGAA (DNA:RNA)
RNA: GGGAGACCGGAAUUCAGAUUGUCCCGUUGAAUUAAAUCCCGUCGUAGCCACCA
DNA 1: CAATCTGAATTCCGGTCTCCC
DNA 2: TGGTGGCTACGACGGGATT
B3: GUCUAGG (DNA:RNA)
RNA: B1 RNA with A25G, A28U, U30G
DNA 1: CAATCTGAATTCCGGTCTCCC
DNA 2: TGGTGGCTACGACGGGATT
B4: UGGCGGA (DNA:RNA)
RNA: B2 RNA with C25U, U27G, U28C, A30G
DNA 1: CAATCTGAATTCCGGTCTCCC
DNA 2: TGGTGGCTACGACGGGATT
B5: UCAAGAG (DNA:RNA)
RNA: B1 RNA with A25U, U26C, C27A, A29G, U30A
DNA 1: CAATCTGAATTCCGGTCTCCC
DNA 2: TGGTGGCTACGACGGGATT
B6: ACGAAAU (DNA:RNA)
RNA: B1 RNA with U26C, C27G, U30A, G31U
DNA 1: CAATCTGAATTCCGGTCTCCC
DNA 2: TGGTGGCTACGACGGGATT
B7: GCAAAUG (DNA:RNA)
RNA: B1 RNA with A25G, U26C, C27A
DNA 1: CAATCTGAATTCCGGTCTCCC
DNA 2: TGGTGGCTACGACGGGATT
B8: GGCAGGU (DNA:RNA)
RNA: B1 RNA with A25G, U26G, A29G, U30G, G31U
DNA 1: CAATCTGAATTCCGGTCTCCC
DNA 2: TGGTGGCTACGACGGGATT
B9: AGGCCCA (DNA:RNA)
RNA: B2 RNA with C25A, U27G, U28C, G29C, A30C
DNA 1: CAATCTGAATTCCGGTCTCCC
DNA 2: TGGTGGCTACGACGGGATT
B10: GUCUGCG (DNA:RNA)
RNA: B1 RNA with A25G, A28U, A29G, U30C
DNA 1: CAATCTGAATTCCGGTCTCCC
DNA 2: TGGTGGCTACGACGGGATT
B11: AUGGUGG (DNA:RNA)
RNA: B1 RNA with C27G, A28G, A29U, U30G
DNA 1: CAATCTGAATTCCGGTCTCCC
DNA 2: TGGTGGCTACGACGGGATT
B12: CAUCAAA (DNA:RNA)
RNA: B2 RNA with G26A, U28C, G29A
DNA 1: CAATCTGAATTCCGGTCTCCC
DNA 2: TGGTGGCTACGACGGGATT
B13: CUUGACC (DNA:RNA)
RNA: B1 RNA with A25C, C27U, A28G, U30C, G31C
DNA 1: CAATCTGAATTCCGGTCTCCC
DNA 2: TGGTGGCTACGACGGGATT
B14: UAUAUUU (DNA:RNA)
RNA: B1 RNA with A25U, U26A, C27U, A29U, G31U
DNA 1: CAATCTGAATTCCGGTCTCCC
DNA 2: TGGTGGCTACGACGGGATT
B15: GACAGGG (DNA:RNA)
RNA: B1 RNA with A25G, U26A, A29G, U30G
DNA 1: CAATCTGAATTCCGGTCTCCC
DNA 2: TGGTGGCTACGACGGGATT
B16: UUUUCAC (DNA:RNA)
RNA: B2 RNA with C25U, G26U, G29C, A31C
DNA 1: CAATCTGAATTCCGGTCTCCC
DNA 2: TGGTGGCTACGACGGGATT
B17: UGGGCUA (DNA:RNA)
RNA: B2 RNA with C25U, U27G, U28G, G29C, A30U
DNA 1: CAATCTGAATTCCGGTCTCCC
DNA 2: TGGTGGCTACGACGGGATT
B18: GGGUAGA (DNA:RNA)
RNA: B2 RNA with C25G, U27G, G29A, A30G
DNA 1: CAATCTGAATTCCGGTCTCCC
DNA 2: TGGTGGCTACGACGGGATT
B19: CAGCUGU (DNA:RNA)
RNA: B2 RNA with G26A, U27G, U28C, G29U, A30G, A31U
DNA 1: CAATCTGAATTCCGGTCTCCC
DNA 2: TGGTGGCTACGACGGGATT
B20: AUUAUUC (DNA:RNA)
RNA: B1 RNA with C27U, A29U, G31C
DNA 1: CAATCTGAATTCCGGTCTCCC
DNA 2: TGGTGGCTACGACGGGATT
B21: UAGUACA (DNA:RNA)
RNA: B2 RNA with C25U, G26A, U27G, G29A, A30C
DNA 1: CAATCTGAATTCCGGTCTCCC
DNA 2: TGGTGGCTACGACGGGATT
B22: CAUUGAA (DNA:RNA)
RNA: B2 RNA with G26A
DNA 1: CAATCTGAATTCCGGTCTCCC
DNA 2: TGGTGGCTACGACGGGATT
B23: AUACCAG (DNA:RNA)
RNA: B1 RNA with C27A, A28C, A29C, U30A
DNA 1: CAATCTGAATTCCGGTCTCCC
DNA 2: TGGTGGCTACGACGGGATT
B24: AAAUGUU (DNA:RNA)
RNA: B1 RNA with U26A, C27A, A28U, A29G, G31U
DNA 1: CAATCTGAATTCCGGTCTCCC
DNA 2: TGGTGGCTACGACGGGATT
B25: AACGAAC (DNA:RNA)
RNA: B1 RNA with U26A, A28G, U30A, G31C
DNA 1: CAATCTGAATTCCGGTCTCCC
DNA 2: TGGTGGCTACGACGGGATT
B26: GCCGACA (DNA:RNA)
RNA: B1 RNA with A25G, U26C, A28G, U30C, G31A
DNA 1: CAATCTGAATTCCGGTCTCCC
DNA 2: TGGTGGCTACGACGGGATT
B27: GGCCAAC (DNA:RNA)
RNA: B1 RNA with A25G, U26G, A28C, U30A, G31C
DNA 1: CAATCTGAATTCCGGTCTCCC
DNA 2: TGGTGGCTACGACGGGATT
B28: AUUGCCU (DNA:RNA)
RNA: B1 RNA with C27U, A28G, A29C, U30C, G31U
DNA 1: CAATCTGAATTCCGGTCTCCC
DNA 2: TGGTGGCTACGACGGGATT
B29: GGUCAGA (DNA:RNA)
RNA: B2 RNA with C25G, U28C, G29A, A30G
DNA 1: CAATCTGAATTCCGGTCTCCC
DNA 2: TGGTGGCTACGACGGGATT
B30: GGCUUCU (DNA:RNA)
RNA: B2 RNA with C25G, U27C, G29U, A30C, A31U
DNA 1: CAATCTGAATTCCGGTCTCCC
DNA 2: TGGTGGCTACGACGGGATT
B31: CACAGGU (DNA:RNA)
RNA: B1 RNA with A25C, U26A, A29G, U30G, G31U
DNA 1: CAATCTGAATTCCGGTCTCCC
DNA 2: TGGTGGCTACGACGGGATT

Target: T1, RBFOX1 RRM RbFoxmut (Fox-RRM*)
Experiment: EMSA; HiTS-Eq, 1 nM pool, 10 min; buffer printed only for the single-RNA assays: 10 mM Tris pH 7.5, 150 mM NaCl, 3.4 mM EDTA, 0.001% NP-40, 30 C
Conditions: tags: His6 N-terminal (pET28a); label: 5' 32P
Outline: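 Purified wild-type or mutant RbFox RRM at increasing concentrations was equilibrated with 1 nM of 5′-radiolabelled RNA carrying 7 randomized nucleotides for 10 min in 50 µL. Unbound RNA was separated by 8% native PAGE and sequenced. Relative association constants came from read-count changes of each RNA species compared with the control reaction, normalised to the cognate motif.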

| Binder | binding signal |
| --- | --- |
| B1 | 0.107 KA relative to UGCAUGU |
| B2 | 0.133 KA relative to UGCAUGU |
| B3 | 0.103 KA relative to UGCAUGU |
| B4 | 0.0963 KA relative to UGCAUGU |
| B5 | 0.0954 KA relative to UGCAUGU |
| B6 | 0.0795 KA relative to UGCAUGU |
| B7 | 0.111 KA relative to UGCAUGU |
| B8 | 0.0607 KA relative to UGCAUGU |
| B9 | 0.079 KA relative to UGCAUGU |
| B10 | 0.171 KA relative to UGCAUGU |
| B11 | 0.154 KA relative to UGCAUGU |
| B12 | 0.0999 KA relative to UGCAUGU |
| B13 | 0.0595 KA relative to UGCAUGU |
| B14 | 0.109 KA relative to UGCAUGU |
| B15 | 0.0654 KA relative to UGCAUGU |
| B16 | 0.0745 KA relative to UGCAUGU |

| Binder | binding signal |
| --- | --- |
| B17 | 0.141 KA relative to UGCAUGU |
| B18 | 0.134 KA relative to UGCAUGU |
| B19 | 0.123 KA relative to UGCAUGU |
| B20 | 0.108 KA relative to UGCAUGU |
| B21 | 0.073 KA relative to UGCAUGU |
| B22 | 0.141 KA relative to UGCAUGU |
| B23 | 0.122 KA relative to UGCAUGU |
| B24 | 0.115 KA relative to UGCAUGU |
| B25 | 0.0568 KA relative to UGCAUGU |
| B26 | 0.0398 KA relative to UGCAUGU |
| B27 | 0.0537 KA relative to UGCAUGU |
| B28 | 0.108 KA relative to UGCAUGU |
| B29 | 0.0741 KA relative to UGCAUGU |
| B30 | 0.129 KA relative to UGCAUGU |
| B31 | 0.106 KA relative to UGCAUGU |

Source: PMC9911399, “Two distinct binding modes provide the RNA-binding protein RbFox with extraordinary sequence specificity”
